Assay results: the supplement of paper PMC10126150
Sequences with one replicate were seen in a single cluster, so their values are uncertain.

System: ATP
Test: switch fluorescence ratio, 500 uM ATP over buffer (Cy3 cluster intensity, sum of 5 cycles each) (fold (ratio)); higher = stronger signal-on switching upon ATP binding; sequences stand for … in TCGTCGGCAGCGTCAGATGTGTATAAGAGACAGTTTTTTTTTTTTTTTTTTTTTTTTT…TC
Conditions: aptamer strand: ATP DNA aptamer (quencher-CACCTGGGGGAGTATTGCGGAGGAAGG + anchor), 100 nM annealed; ATP concentration: 500 uM; one replicate
How it was run: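 Cy3-labelled switching-strand clusters on a modified Illumina MiSeq flow-cell were annealed to 100 nM quencher-labelled ATP aptamer and imaged first in selection buffer, then after 15 min with 500 uM ATP at 22 °C. NaOH stripping and re-annealing separated each of five buffer/ATP cycles, and clusters outside 100-1000 RFU were excluded. The fluorescence ratio sums target-cycle Cy3 intensity over buffer-cycle Cy3 intensity per cluster and averages it per switch-domain sequence.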
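Note: ATP exposure 15 min at 22 °C before imaging.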

Row | Sequence | switch fluorescence ratio
1 | TTGCGAGGAT | 0.995
2 | TTGCGCTAGA | 1.04
3 | TTGCGGCTGC | 0.985
4 | TTGCGGGCGT | 1
5 | TTGCGGTCTT | 1.05
6 | TTGCGTTTGG | 0.961
7 | TTGCTAACTT | 0.945
8 | TTGCTAAT | 0.992
9 | TTGCTAGGAG | 0.937
10 | TTGCTCCACG | 1.03
11 | TTGCTGAGTT | 0.979
12 | TTGCTGCCCC | 1.02
13 | TTGCTGTTCT | 0.993
14 | TTGCTTTAT | 1
15 | TTGGAAAGAT | 0.999
16 | TTGGAAATTC | 1.81
17 | TTGGAACACT | 1
18 | TTGGAAGTGT | 1.13
19 | TTGGATATCG | 0.995
20 | TTGGATCCTG | 1.01
21 | TTGGATGCGC | 0.933
22 | TTGGCAAATT | 1.05
23 | TTGGCAACGC | 0.986
24 | TTGGCACATG | 0.983
25 | TTGGCTGGTT | 1.06
26 | TTGGGAGGTC | 1.02

Row | Sequence | switch fluorescence ratio
27 | TTGGGATTGA | 1
28 | TTGGGCAACC | 1.02
29 | TTGGGCGATG | 1
30 | TTGGGCGTCT | 1.01
31 | TTGGGCTAGA | 1.01
32 | TTGGGGCATT | 1.06
33 | TTGGGGCGGC | 1
34 | TTGGGGGTG | 1.06
35 | TTGGGTAAAA | 0.955
36 | TTGGGTAACA | 0.975
37 | TTGGGTTCCA | 1.03
38 | TTGGTATATG | 1
39 | TTGGTATCGA | 0.956
40 | TTGGTATGA | 1
41 | TTGGTATTAA | 0.97
42 | TTGGTCAAGT | 1
43 | TTGGTCAGGT | 0.989
44 | TTGGTCAGTA | 1.1
45 | TTGGTCATT | 1.04
46 | TTGGTCGGTT | 0.982
47 | TTGGTCTTGG | 0.977
48 | TTGGTGCGAG | 0.974
49 | TTGGTGCTAA | 0.986
50 | TTGGTGTCAC | 0.961
51 | TTGGTTATA | 0.999
52 | TTGGTTCTC | 0.955

Row | Sequence | switch fluorescence ratio
53 | TTGGTTGATT | 0.99
54 | TTGTAATCCT | 1.17
55 | TTGTAATCTG | 0.986
56 | TTGTACGCTG | 1.01
57 | TTGTAGACAC | 1.28
58 | TTGTAGGATC | 0.991
59 | TTGTAGTGGT | 1.02
60 | TTGTATAGTC | 0.94
61 | TTGTCCGCC | 1.17
62 | TTGTCTAACT | 1.01
63 | TTGTCTTTGC | 1.01
64 | TTGTGAACGT | 1.01
65 | TTGTGCATAG | 1.08
66 | TTGTGGAATA | 0.999
67 | TTGTGGGAA | 0.974
68 | TTGTGGTCAT | 1.04
69 | TTGTGTGGAG | 1
70 | TTGTGTGGCT | 1.02
71 | TTGTTACCTT | 1.11
72 | TTGTTCAAAC | 0.991
73 | TTGTTCAATG | 1.01
74 | TTGTTCTCAC | 0.983
75 | TTGTTCTGAA | 0.984
76 | TTGTTCTTCG | 1.02
77 | TTGTTGATCG | 1.01
78 | TTGTTTCCTT | 1.05

Row | Sequence | switch fluorescence ratio
79 | TTGTTTCTCG | 1.02
80 | TTGTTTTAA | 0.923
81 | TTGTTTTACG | 1.03
82 | TTGTTTTCAG | 1.04
83 | TTTAAACAGC | 0.987
84 | TTTAAAGTG | 0.999
85 | TTTAAATGTG | 0.99
86 | TTTAACAAGG | 1.04
87 | TTTAACAATT | 0.972
88 | TTTAACAGGA | 1.03
89 | TTTAACAGTG | 1
90 | TTTAACCGGA | 1.46
91 | TTTAACGGGT | 0.978
92 | TTTAACTGTA | 0.962
93 | TTTAACTGTC | 1.68
94 | TTTAAGTCTT | 0.979
95 | TTTAAGTTGT | 0.971
96 | TTTAATATAA | 1.02
97 | TTTAATATAC | 1.07
98 | TTTAATCCTT | 1.03
99 | TTTAATCTTG | 1.01
100 | TTTAATGAAG | 1.03
101 | TTTAATGAGG | 1.05
